From PubChem BioAssay (NCI)
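1) Cells in 96-well plates. 2) Compound, 48 h, 5 concentrations. 3) Linear interpolation between surrounding doses. 4) Unreached endpoint = highest concentration. The concentration for 50% growth inhibition is given as GI50. TGI is the concentration that stops growth completely.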

The compounds below were run on NCI-H322M lung (assay: growth of human tumour cells (NCI), 48 h).
Compound `N#Cc1ccc(/C=N/NC(=O)c2[nH]c3ccc(Br)cc3c2-c2ccccc2)s1` has a GI50 of 2150 nM and a TGI of 30700 nM.
`O=C1C2=C(C(=O)c3c(O)cccc31)C(c1ccco1)c1sc(=O)[nH]c1S2` (stereo unspecified) showed a GI50 of 1710 nM and a TGI of 3130 nM.
For `O=C(CCCCCCNC(=O)C(O)(O)C(F)(F)F)Nc1ncc(-c2ccc(Br)cc2)s1`, the GI50 was 1200 nM and the TGI was 11400 nM.
